# Data: PubChem BioAssay AID1346428 (National Center for Advancing Translational Sciences (NCATS), 2018)
# The whole screen tested about 48,000 compounds, of which about 1,200 (2.5%) were called active. Inconclusive results (about 2%) are left out.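 Rule for the calls: active = activation of at least 60% and not above a set upper limit (about 1 call in 100 departs from these limits); inconclusive = activation of 40% to 60%, or above that upper limit; inactive = activation under 40%.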 The list shows a part of the results.
# Molecular target: Probable G-protein coupled receptor 32 (Homo sapiens) (UniProt O75388)
# Chain of UniProt O75388 (O75388 whole entry, looked up): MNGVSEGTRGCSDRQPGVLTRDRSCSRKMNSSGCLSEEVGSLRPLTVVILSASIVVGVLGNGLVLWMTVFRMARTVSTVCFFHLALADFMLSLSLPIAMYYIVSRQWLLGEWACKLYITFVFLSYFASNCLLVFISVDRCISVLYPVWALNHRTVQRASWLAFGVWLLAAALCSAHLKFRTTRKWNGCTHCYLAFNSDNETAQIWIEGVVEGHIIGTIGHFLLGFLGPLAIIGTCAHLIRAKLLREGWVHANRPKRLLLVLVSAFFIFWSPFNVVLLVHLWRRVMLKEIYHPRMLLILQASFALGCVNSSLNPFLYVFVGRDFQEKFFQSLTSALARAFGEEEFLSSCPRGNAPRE
# Test: qHTS for Agonists of Human Resolvin D1 Receptor DRV1; note: 0% is about no effect
# Conditions: CHO-K1 GPR32 beta-arrestin PathHunter luminescence, 90 min; at 76.9 µM; hits give high values; zero percent set by DMSO-only wells
# Outline: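 Beta-arrestin recruitment read-out: luminescence from complemented beta-Gal in CHO-K1 GPR32 PathHunter cells, measured 1 h after detection reagent at ambient temperature following 90 min compound exposure at 37 °C; DMSO served as basal (EC0) control.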
row,SMILES,activation
1,O=C(O)C1=CCNCC1,inactive: -2.62%
2,CCCCOC(=O)c1ccc(NC(=O)c2csnn2)cc1,inactive: 11.9%
3,CC1=C(C(=O)Nc2ccccc2)C(c2ccc[nH]2)n2ncnc2N1 (stereo unspecified),inactive: -18.2%
4,COc1ccc(CNC(=O)c2cccc(NC(=O)N3CCSc4ncccc43)c2)cc1,inactive: -0.241%
5,Cc1ccc(Cl)cc1N1C(=O)N(Cc2ccc(C#N)cc2)c2ccccc2S1(=O)=O,inactive: 27%
6,COc1ccc(C2=Nc3ccc(C)cc3NC(c3ccc(Cl)cc3)=N2)cc1,inactive: -1.87%
7,COc1ccc(Cl)cc1NC(=O)CCCn1c(C)c2cnn(-c3ccccc3)c(=O)c2c1C,inactive: -24.7%
8,COc1ccc(-c2noc(N3CCC(C(=O)Nc4ccc(C)c(F)c4)CC3)n2)cc1OC,inactive: -6.58%
9,COc1cccc(Cn2c(=O)n(-c3ccc(Br)cc3F)c(=O)c3sc4ccccc4c32)c1,inactive: 26.6%
10,COc1ccc(NC(=O)CCNS(=O)(=O)c2cccc3nsnc23)cc1OC,inactive: 2.57%
11,COc1ccc(N(Cc2ccccc2)C(=O)c2nc(SC)ncc2Cl)cc1,inactive: -11.1%
12,Cc1ccc(NC(=O)CC2Nc3cccc4cccc(c34)NC2=O)cc1 (stereo unspecified),inactive: -9.67%
13,CCOc1cccc2cc(-c3nc4sc5c(c4c(=O)[nH]3)CCC(C)C5)c(=O)oc12 (stereo unspecified),inactive: -12.6%
14,CCCCNC(=O)CSc1nc2ccccc2nc1Cc1ccc(Cl)cc1,inactive: -4.97%
15,CCCOc1cccc(C(=O)N(Cc2cc(OC)c(OC)c(OC)c2)C2CCS(=O)(=O)C2)c1 (stereo unspecified),inactive: -8.67%
16,CN=C(N)NCCC[C@H](N)C(=O)O,inactive: -3.87%
17,Cc1ccc(OCCn2nnc3sc4c(c3c2=O)CCC(C(C)(C)C)C4)cc1 (stereo unspecified),inactive: 18.3%
18,CC(C)c1ccc(NC(=O)c2cccn2-c2nnc(N3CCCCC3)s2)cc1,inactive: -24.7%
19,CCn1c(CN2CCC(C)CC2)nc2cc(NC(=O)COc3ccc([N+](=O)[O-])cc3)ccc21,inactive: -3.54%
20,O=C(NCCc1ccccc1)c1c[nH]c2ccc(S(=O)(=O)Nc3ccccc3F)cc2c1=O,inactive: 15.2%
21,COc1cc(C(=O)Nc2ccc(OCc3cc(=O)n4cc(C)sc4n3)cc2)cc(OC)c1OC,inactive: -3.62%
22,COc1ccc(NC(=O)Nc2nnc(N(C)C3CCCCC3)s2)c(OC)c1,inactive: -1.61%

row,SMILES,activation
1,O=C(Nc1ccc(O)c(-c2nc3ccccc3o2)c1)c1ccco1,active: 84.1%
2,CCOC(=O)c1sc(NC(=O)COc2ccccc2Cl)c(C(=O)OCC)c1C,inactive: -2.16%
3,CC1CCN(C(=O)c2cc(-c3ccc(Cl)cc3)on2)CC1,inactive: 12.9%
4,CC1=C(C(=O)OCC2CCCCC2)C(c2c(F)cccc2Cl)CC(=O)N1 (stereo unspecified),inactive: -1.82%
5,CCCCCCCCCCC(C)(C)C(=O)Nc1c(OC)cc(OC)cc1OC,inactive: -21.6%
6,COCCNC(=O)c1cc(Sc2ccc(F)cc2F)nc2ccccc12,inactive: -5.33%
7,COc1ccc(CCNC(=O)CCc2c(C)nc3nc(C)nn3c2C)cc1OC,inactive: -8.54%
8,COc1ccc(C)cc1NC(=O)CCS(=O)(=O)c1ccc2c(c1)CC(=O)N2C,inactive: 6.73%
9,CCc1ccc(S(=O)(=O)c2nnn3c2nc(NC2CCCC2)c2sccc23)cc1,inactive: -19.3%
10,COc1cc(OC)c(NC(=O)Nc2ccccc2OCc2cc(=O)n3cc(C)ccc3n2)cc1Cl,inactive: -12.9%
11,CC(=O)N1c2nc(-c3ccco3)nn2C2(CCCCC2)[C@@H]2CCCC[C@@H]21,inactive: -4.32%
12,COc1ccc(NC(=O)CN(C)S(=O)(=O)c2ccc3[nH]c4c(c3c2)CCCC4)cc1Cl,active: 90.6%
13,O=C(CSc1ccc2ccccc2n1)Nc1nsc(-c2ccc(Cl)cc2)n1,inactive: 7.68%
14,COc1ccc(-n2ccn(Cc3ccc(C)cc3)c(=O)c2=O)cc1OC,inactive: -18.4%
15,O=C(c1ccc2c(c1)N(Cc1ccc(F)cc1)C(=O)c1ccccc1S2(=O)=O)N1CCC(Cc2ccccc2)CC1,inactive: -0.983%
16,Cc1cccc(-n2c(=O)c3c(c4cc(C)ccc4n3C)n(Cc3ccccc3F)c2=O)c1,inactive: 13.4%
17,COc1ccc(Cn2c(SCc3ccc(C(=O)NCc4ccccc4F)cc3)nc3cccnc32)cc1,inactive: 12.3%
18,Cc1cc(F)ccc1NC(=O)c1sc2nc(-c3cccs3)ccc2c1N,active: 67%
19,Cc1nn(C)c2c1c(C(F)(F)F)cc(=O)n2CC(=O)NCc1ccccc1Cl,inactive: 7.66%
20,Cc1ccc(CC(=O)Nc2c(C(=O)N3CCN(c4ccccc4F)CC3)oc3ccccc23)cc1,inactive: -28.8%
21,CCOc1ccccc1NC(=O)C(C)Sc1nc2c(c(=O)[nH]1)CCCC2 (stereo unspecified),inactive: 15.5%
22,CCc1cccc(CC)c1NC1=NS(=O)(=O)c2ccccc21,inactive: -10.2%

row,SMILES,activation
1,COc1ccc(-c2cc(C(=O)Nc3c(C)nn(Cc4ccc(F)cc4)c3C)no2)cc1OC,inactive: 15.4%
2,Cc1ccc(NCc2nnc3n2CCCCC3)cc1Cl,inactive: -7.59%
3,CCOCCCNC(=O)CCc1nnc2ccc(N3CCN(c4cccc(OC)c4)CC3)nn12,inactive: 2.68%
4,CCOC(=O)c1ccccc1NC(=O)CCc1c(C)nc2ncnn2c1C,inactive: -1.26%
5,CCOC(=O)C1=C(CN2CCC(C(=O)OCC)CC2)NC(=O)NC1c1ccc(Cl)cc1 (stereo unspecified),inactive: -11%
6,Cc1ccc2c(=O)cc(C(=O)Nc3nnc(C)s3)oc2c1,inactive: -9.68%
7,CCn1nc(-c2ccccc2)c(-c2ccccc2)c(C(=O)OCCOC)c1=O,inactive: -14.1%
8,CN1C(C(=O)Nc2ccc(F)cc2F)=CC(c2cccs2)=NS1(=O)=O,inactive: 1.39%
9,CC#CCOC(=O)c1c(C)nc2sc3c(c2c1N)CCC(O)C3 (stereo unspecified),inactive: 3.33%
10,Cc1ccc(Nc2c(-c3ccccc3O)nc3ccc(Br)cn23)cc1,inactive: -7.38%
11,CC(C)N(C(=O)Cn1cc(S(=O)(=O)Cc2ccc(C(F)(F)F)cc2)c2ccccc21)C(C)C,inactive: -15.7%
12,CCOc1ccc(S(=O)(=O)N2CCN(c3ccccc3)CC2)cc1C(N)=O,inactive: -5.45%
13,Cc1ccc(CN(C(=O)COc2ccc(C)c(C)c2)C2CCS(=O)(=O)C2)o1 (stereo unspecified),inactive: -20.8%
14,CN1CCc2cccc3c2C1Cc1ccc(O)c(O)c1-3 (stereo unspecified),inactive: 15.1%
15,Cc1cccc(NC(=O)CSc2nc3c([nH]c4ccccc43)c(=O)n2C)c1,inactive: -13.6%
16,COc1ccc2c(Sc3ccc(Cl)cc3)c(C(=O)NCCCN3CCCCC3)[nH]c2c1,inactive: -21.6%
17,CCOc1ccc(-n2c(=O)c3c(C)c(C(=O)N(C)C)sc3n(CC(=O)Nc3c(C)cc(C)cc3C)c2=O)cc1,inactive: -14%
18,CC(N)(C(=O)O)c1ccc(C(=O)O)cc1 (stereo unspecified),inactive: -3%
19,COc1ccc(OCc2nnc(-c3ccccc3)o2)cc1,inactive: 23.2%
20,COc1ccc(S(=O)(=O)Nc2cc(-c3cn4ccccc4n3)ccc2C)cc1,inactive: 19.1%
21,Cc1cccc(-n2ncc(C(=O)N3CCC(C)CC3)c2C2CCN(C(=O)OC(C)(C)C)CC2)c1,inactive: -13.3%
22,COc1cc(C2CC(=O)Nc3c2c(=O)n(C)c(=O)n3C)cc(OC)c1OC (stereo unspecified),inactive: -1.72%

row,SMILES,activation
1,CCOC(=O)c1cccc(NC(=O)CCCn2c(C)c3cnn(-c4ccccc4)c(=O)c3c2C)c1,inactive: 4.24%
2,COc1ccc(-c2cc(C(C)=O)c(C)n2CCC(=O)NCc2ccc(F)cc2)cc1,inactive: -18.7%
3,Cc1ccc(NC(=O)c2cc3c(=O)[nH]c4ccccc4c3n2C)cc1F,inactive: 13.5%
4,Cc1ccc(CNC(=O)CCC(=O)N2CC(C)Sc3ccccc32)cc1 (stereo unspecified),inactive: -17.5%
5,CCCCn1c(CNC(=O)c2ccc(OC)cc2)nnc1SCC(=O)Nc1ccccc1,inactive: 9.77%
6,CC[C@]12CCCN3CCc4c(n(c5ccccc45)C(=O)C1)[C@@H]32,inactive: -26.8%
7,CCN(CC)c1cc2c(cc1F)c(=O)c(S(=O)(=O)c1ccccc1)cn2Cc1ccccc1,inactive: -20.9%
8,COc1ccc(CCNC(=O)NCc2noc3ccc(C)cc23)c(OC)c1,inactive: -7.66%
9,CC(=O)c1cccc(NS(=O)(=O)c2c(C)nc3sc(C)cn3c2=O)c1,inactive: 4%
10,CCOC(=O)c1c(S(=O)(=O)NCC(=O)N2CCN(c3ccccc3OC)CC2)c(C)n(C)c1C,inactive: 0.944%
11,CCOC(=O)c1sc2ncn(CC(=O)Nc3ccc(C)cc3C)c(=O)c2c1C,inactive: -4.38%
12,Cc1cc(C)c(/C=C/c2onc(C)c2S(=O)(=O)N2CCC(C(=O)N3CCN(c4ccccc4)CC3)CC2)c(C)c1,inactive: -9.57%
13,COC(=O)c1ccc(Cn2c(SCc3cccc(C)c3)nc3ccncc32)cc1,inactive: -12%
14,COc1ccc(S(=O)(=O)N(CC(=O)N2CCC(C)CC2)c2ccc(C)cc2)cc1,inactive: 0.506%
15,CC1CCc2nc3ncn(CC(=O)Nc4cccc(C#N)c4)c(=O)c3cc2C1 (stereo unspecified),inactive: -15.8%
16,Cc1ccc(-c2ccc(=O)n(C(C)C(=O)Nc3ccccc3Cl)n2)cc1C (stereo unspecified),inactive: -3.62%
17,COc1cccc(NC(=O)c2cn(C3CCCCC3)c(=O)c3c2c2ccccc2n3C)c1,inactive: -7.6%
18,CCCCNC(=O)C(CC)Sc1nnc(-c2ccc(OC)c(OC)c2)c(-c2ccc(OC)c(OC)c2)n1 (stereo unspecified),inactive: -23%
19,CCc1ccccc1Nc1nn2c(=O)c3ccc(C(=O)Nc4cc(C)cc(C)c4)cc3nc2s1,inactive: -29.5%
20,Cc1cc(N2CCC(C)CC2)nc2ccc(NC(=O)CCC(=O)N3CCN(c4cccc(C(F)(F)F)c4)CC3)cc12,inactive: -7.85%
